Source: a collection of fitness landscapes (doi:10.1126/science.1257360)
Some of the results follow.

B1: PhoQ; a variant is named by its letters at X, in order, P23837 (parent)
chain: MKKLLRLFFPLSLRVRFLLATAAVVLVLSLAYGMVALIGYSVSFDKTTFRLLRGESNLFYTLAKWENNKLHVELPENIDKQSPTMTLIYDENGQLLWAQRDVPWLMKMIQPDWLKSNGFHEIEADVNDTSLLLSGDHSIQQQLQEVREDDDDAEMTHSVAVNVYPATSRMPKLTIVVVDTIPVELKSSYMVWSWFIYVLSANLLLVIPLLWVAAWWSLRPIEALAKEVRELEEHNRELLNPATTRELTSLVRNLNRLLKSERERYDKYRTTLTDLTHSLKTPLXXLQXXLRSLRSEKMSVSDAEPVMLEQISRISQQIGYYLHRASMRGGTLLSRELHPVAPLLDNLTSALNKVYQRKGVNISLDISPEISFVGEQNDFVEVMGNVLDNACKYCLEFVEISARQTDEHLYIVVEDDGPGIPLSKREVIFDRGQRVDTLRPGQGVGLAVAREITEQYEGKIVAGESMLGGARMEVIFGRQHSAPKDE

Variants of: B1
Assay: enrichment ratio after two sorts for PhoP signalling (ratio (wild type AVST 3.29)); higher = more functional
Conditions: with PhoP (E. coli)

| Variant | enrichment ratio |
| --- | --- |
| VEVK | ≤ 0.25 |
| VNTF | ≤ 0.25 |
| YDMG | ≤ 0.25 |
| FWGL | ≤ 0.25 |
| LRLF | ≤ 0.25 |
| NEMI | 29 |
| PNTD | ≤ 0.25 |
| MNCL | 1.41 |
| MDCQ | ≤ 0.25 |
| KRSE | ≤ 0.25 |
| HKSE | ≤ 0.25 |
| SMDD | ≤ 0.25 |
| YTQW | ≤ 0.25 |
| NFLT | ≤ 0.25 |
| YDIH | ≤ 0.25 |
| TVCT | 6.2 |
| VLIP | ≤ 0.25 |
| DPVV | ≤ 0.25 |
| HNHG | ≤ 0.25 |
| FWRS | 2.47 |
| KPMR | ≤ 0.25 |
| NKNR | ≤ 0.25 |
| VRWM | ≤ 0.25 |
| KQSK | ≤ 0.25 |
| SRYL | ≤ 0.25 |
| VPKF | ≤ 0.25 |

| Variant | enrichment ratio |
| --- | --- |
| RIHG | ≤ 0.25 |
| QNRH | ≤ 0.25 |
| GTCD | ≤ 0.25 |
| QYLH | ≤ 0.25 |
| TMQN | ≤ 0.25 |
| DQWF | ≤ 0.25 |
| SKQL | ≤ 0.25 |
| GVGK | ≤ 0.25 |
| QMTV | ≤ 0.25 |
| HYPM | ≤ 0.25 |
| AGFR | ≤ 0.25 |
| TGLH | 8.99 |
| NICV | ≤ 0.25 |
| AICG | 8.42 |
| YRIF | ≤ 0.25 |
| AWNY | ≤ 0.25 |
| MHQY | ≤ 0.25 |
| KNAY | ≤ 0.25 |
| KANS | ≤ 0.25 |
| LAYS | ≤ 0.25 |
| VVPQ | ≤ 0.25 |
| RAMN | ≤ 0.25 |
| HKLH | ≤ 0.25 |
| HTSP | ≤ 0.25 |
| QCNW | ≤ 0.25 |
| YWEH | ≤ 0.25 |

| Variant | enrichment ratio |
| --- | --- |
| DYCD | ≤ 0.25 |
| VISP | ≤ 0.25 |
| GFNP | ≤ 0.25 |
| EHID | ≤ 0.25 |
| YASG | ≤ 0.25 |
| SWFY | ≤ 0.25 |
| ETRA | ≤ 0.25 |
| GFCW | ≤ 0.25 |
| WRTS | ≤ 0.25 |
| TVFG | ≤ 0.25 |
| ATNN | ≤ 0.25 |
| KYNF | ≤ 0.25 |
| SSQY | 0.712 |
| TVSK | 9.4 |
| WGWV | ≤ 0.25 |
| HSDC | ≤ 0.25 |
| LGDM | ≤ 0.25 |
| APYP | ≤ 0.25 |
| NKQS | ≤ 0.25 |
| DRYP | ≤ 0.25 |
| IKQL | ≤ 0.25 |
| ISEN | ≤ 0.25 |
| FRIL | ≤ 0.25 |
| AALT | 11.9 |
| VHGA | ≤ 0.25 |
| LKND | ≤ 0.25 |

| Variant | enrichment ratio |
| --- | --- |
| RDRM | ≤ 0.25 |
| PVKW | ≤ 0.25 |
| YRLD | ≤ 0.25 |
| VICR | ≤ 0.25 |
| SHGH | 0.363 |
| YMFT | ≤ 0.25 |
| WDLG | ≤ 0.25 |
| GQNQ | ≤ 0.25 |
| VPRR | ≤ 0.25 |
| GWSI | ≤ 0.25 |
| YVKG | ≤ 0.25 |
| PNNP | ≤ 0.25 |
| TEVY | 1.43 |
| ANEV | ≤ 0.25 |
| LCTR | ≤ 0.25 |
| MVKG | ≤ 0.25 |
| YYFW | ≤ 0.25 |
| MLQP | ≤ 0.25 |
| DSGW | ≤ 0.25 |
| AAFT | ≤ 0.25 |
| QQMM | ≤ 0.25 |
| HKTY | ≤ 0.25 |
| TKQA | ≤ 0.25 |
| AVNS | ≤ 0.25 |
| NHEF | ≤ 0.25 |
| IRCQ | ≤ 0.25 |

| Variant | enrichment ratio |
| --- | --- |
| HLNS | ≤ 0.25 |
| DRKA | ≤ 0.25 |
| KLYM | ≤ 0.25 |
| WVLP | ≤ 0.25 |
| QTRY | ≤ 0.25 |
| PMIV | ≤ 0.25 |
| EVDP | ≤ 0.25 |
| NYWR | ≤ 0.25 |
| HADL | ≤ 0.25 |
| YARY | ≤ 0.25 |
| DAFS | ≤ 0.25 |
| DRGQ | ≤ 0.25 |
| KVSQ | ≤ 0.25 |
| KYSW | ≤ 0.25 |
| EECC | ≤ 0.25 |
| NCHY | ≤ 0.25 |
| RFGL | ≤ 0.25 |
| FALS | 8.07 |
| LGGT | ≤ 0.25 |
| YELI | 8.44 |
| IYTG | ≤ 0.25 |
| ITYQ | ≤ 0.25 |
| GTYL | ≤ 0.25 |
| NRGK | ≤ 0.25 |
| PSRH | ≤ 0.25 |
| WYSV | ≤ 0.25 |

| Variant | enrichment ratio |
| --- | --- |
| FKTP | ≤ 0.25 |
| HAFS | ≤ 0.25 |
| RGLF | ≤ 0.25 |
| FKMR | ≤ 0.25 |
| FCRY | ≤ 0.25 |
| IGRW | ≤ 0.25 |
| PIMI | ≤ 0.25 |
| VECG | 3.25 |
| RMTY | ≤ 0.25 |
| TMCL | 7.52 |
| TVDP | ≤ 0.25 |
| MSCL | 6.54 |
| RPSG | ≤ 0.25 |
| YTWK | ≤ 0.25 |
| TRLC | 8.6 |
| SRYE | ≤ 0.25 |
| GSWK | ≤ 0.25 |
| RFHL | ≤ 0.25 |
| WKNI | ≤ 0.25 |
| NMEA | ≤ 0.25 |
| VGRG | ≤ 0.25 |
| DTVR | ≤ 0.25 |
| QQRY | ≤ 0.25 |
